Results reported in PubChem BioAssay AID686979 (National Center for Advancing Translational Sciences (NCATS), 2013).
Where “and” joins values, the source holds several entries; their conditions need not be identical. Identical values can stand only once. The campaign covered roughly 420,000 compounds. About 50,000 (12%) were called active. This list was built around the results that the source calls inconclusive (neither active nor inactive); the mix of calls is not that of the screen. Calls follow the shape of the dose curve; as a rule, active = well fitted inhibition curve with a large enough effect; inconclusive = small, poorly fitted or top-dose-only effect; inactive = flat fitted curve, though single readings scatter. Potencies beside an inconclusive call are fits to weak or partial responses and may not hold up.

Test: qHTS for Inhibitors of human tyrosyl-DNA phosphodiesterase 1 (TDP1): qHTS in cells in presence of CPT; also: nearly all actives have a fitted effect of over 55% in size
Details: chicken DT40 Tdp1-/-;hTDP1 cells + 20 nM CPT, ATP luminescence, 48 h; activity change, negative = growth inhibition: at 46.2 µM (top of the series)
Outline: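 Cell growth measured by CellTiter-Glo luminescence after a minimum 48 h, 37 C compound exposure with 20 nM CPT in Tdp1-knockout DT40 cells stably expressing hTDP1, seeded 400/well; qHTS titration format.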
% is scaled to controls: 0 for no effect and ±100 for the full control effect; potency is read from the fitted curve at half-maximal effect; tags tell the direction and shape of the fitted curve.

Question: With `CCCCC(=O)OC1=C(C(=O)c2ccccc2)N(C)S(=O)(=O)c2ccccc21` as the molecule, how does the Potency read?
Answer: inconclusive: 18.4 µM [inhibitor, single point]

Question: For `Cn1nc(-c2ccc(C(=O)Nc3cccc(C(F)(F)F)c3)cc2)c2ccccc2c1=O`, which Potency is on record?
Answer: inconclusive: 25.9 µM [inhibitor, single point]

Question: With `Cc1ccccc1Nc1c(-c2cccnc2)nc2ccccn12` as the molecule, how does the Potency read?
Answer: active: 20.6 µM

Question: With `Cc1cnc(C(=O)OCC(=O)Nc2ccc(Oc3ccccc3)cc2)cn1` as the molecule, how does the “activity change, negative = growth inhibition” value read?
Answer: inactive: -1.99%

Question: For `COc1cccc2cc(C(N)=O)/c(=N\NC(=O)c3ccccc3)oc12`, which “activity change, negative = growth inhibition” value is on record?
Answer: inactive: -11%

Question: With `Cc1cc(C)cc(NC(=O)C(NCCN2CCOCC2)c2ccccc2)c1` (configuration not stated) as the molecule, how does the Potency read?
Answer: inconclusive: 23.1 µM [inhibitor, single point]

Question: With `O=C(CSc1nccc(=O)[nH]1)Nc1ccc2c(c1)OCCO2` as the molecule, how does the “activity change, negative = growth inhibition” value read?
Answer: inactive: -13.6%

Question: With `Cn1c(N)c(Br)c(-c2ccc(F)cc2)c(C#N)c1=O` as the molecule, how does the “activity change, negative = growth inhibition” value read?
Answer: inactive: -0.488%

Question: For `CC1(C)Cc2cccc(OCC(=O)N3CCN(S(=O)(=O)c4ccccc4)CC3)c2O1`, which Potency is on record?
Answer: inconclusive: 29.1 µM [inhibitor, single point]

Question: Which Potency does the source give for `Nc1cnc(Nc2ccc(Br)cc2)nc1N` here?
Answer: inconclusive: 20.6 µM [inhibitor, single point]

Question: For `CCn1c(=O)n(CC)c2cc(S(=O)(=O)N3CCc4ccccc43)ccc21`, which Potency is on record?
Answer: active: 13 µM

Question: Which Potency does the source give for `O=C(NCC1CCCN1S(=O)(=O)c1cccs1)c1ccccc1` (configuration not stated) here?
Answer: inconclusive: 18.4 µM [inhibitor, single point]

Question: Which “activity change, negative = growth inhibition” value does the source give for `C[C@@H]1CCC[C@]2(O[C@@H](CCO)C[C@@H](O)[C@@H]2O)O1` here?
Answer: inactive: 0.0722%

Question: Which “activity change, negative = growth inhibition” value does the source give for `CC(O)[C@@H]1NC(=O)[C@H](Cc2ccccc2)NC(=O)[C@H](C(C)O)NC(=O)[C@H](CCCCN)NC(=O)[C@H](Cc2c[nH]c3ccccc23)NC(=O)[C@H](Cc2ccccc2)NC(=O)[C@H](Cc2ccccc2)NC(=O)[C@H](CC(N)=O)NC(=O)[C@H](CCCCN)NC(=O)[C@@H](NC(=O)CNC(=O)[C@H](C)N)CSSC[C@@H](C(=O)O)NC(=O)[C@H](CO)NC1=O` (some centres not stated) here?
Answer: inactive: -6.84%

Question: For `C[C@H]1CN([C@@H](C)CO)C(=O)c2cccc(NC(=O)C3CC3)c2O[C@H]1CN(C)Cc1ccc(-c2ccccc2)cc1`, which Potency is on record?
Answer: inconclusive: 23.1 µM [inhibitor, single point]

Question: With `Cc1ccc(CN(C)C(=O)c2cccc(S(=O)(=O)N3CCCC3)c2)cc1` as the molecule, how does the Potency read?
Answer: inconclusive: 29.1 µM [inhibitor, single point]

Question: With `CCC1Oc2ccc(C)cc2N(CC(=O)NCc2ccccc2OC)C1=O` (configuration not stated) as the molecule, how does the “activity change, negative = growth inhibition” value read?
Answer: inactive: -8.28%

Question: With `O=C(COc1ccc(Cl)cc1)Nc1ccc(C(=O)NCc2cccnc2)cc1` as the molecule, how does the Potency read?
Answer: active: 11.6 µM

Question: Which Potency does the source give for `Cc1ccc(C)c(CN2C(=O)c3ccccc3S(=O)c3ccc(C(=O)N4CCN(c5ccccn5)CC4)cc32)c1` (configuration not stated) here?
Answer: inconclusive: 18.4 µM [inhibitor, single point]

Question: With `Cc1[nH]c2ccc(C(=O)NC3CCC(C)CC3)cc2c1C` (configuration not stated) as the molecule, how does the Potency read?
Answer: inconclusive: 16.4 µM [inhibitor, partial curve]

Question: With `O=C(N/N=C/c1ccc([N+](=O)[O-])o1)c1cc(-c2ccc(-c3ccccc3)cc2)nc2ccccc12` as the molecule, how does the Potency read?
Answer: active: 4.11 µM

Question: Which Potency does the source give for `O=C(NC(=S)N1CCN(c2ccccc2)CC1)c1ccc(S(=O)(=O)N2CCOCC2)cc1` here?
Answer: inconclusive: 29.1 µM [inhibitor, single point]

Question: Which Potency does the source give for `Cc1nn(C)c(C)c1S(=O)(=O)N(CC(=O)N1CCN(c2ccccc2)CC1)c1ccc(C(C)C)cc1` here?
Answer: active: 16.4 µM

Question: Which Potency does the source give for `N#Cc1cc(C(=O)c2cc(Br)ccc2O)cn(Cc2ccccc2)c1=O` here?
Answer: inconclusive: 20.6 µM [inhibitor, single point]

Question: With `CCNc1c(NC(=O)c2cccs2)c(=O)oc2ccccc12` as the molecule, how does the “activity change, negative = growth inhibition” value read?
Answer: inactive: 1.93%

Question: For `Nc1sc2c(c1C(=O)NCCc1ccccc1)CCCC2`, which Potency is on record?
Answer: inconclusive: 18.4 µM [inhibitor, single point]

Question: With `COc1cc(CNC(C)C23CC4CC(CC(C4)C2)C3)cc(OC)c1OC` (configuration not stated) as the molecule, how does the Potency read?
Answer: inconclusive: 29.1 µM [inhibitor, single point]

Question: For `CCC1CCCCN1C(=O)c1cc(S(=O)(=O)N2CCOCC2)ccc1C` (configuration not stated), which Potency is on record?
Answer: inconclusive: 16.4 µM [inhibitor, partial curve]

Question: For `CC1(Cc2cc(Cl)ccc2C(F)(F)F)C(=O)Nc2ccc(-c3ccc(F)c(Cl)c3)cc21` (configuration not stated), which Potency is on record?
Answer: inconclusive: 18.4 µM [inhibitor, single point]

Question: With `CC(C)OC(=O)c1cc2c(=O)[nH]c(C(Cl)(Cl)Cl)nc2o1` as the molecule, how does the Potency read?
Answer: inconclusive: 29.1 µM [inhibitor, single point]

Question: With `CCOC(=O)C1=C(C)NC(C)=C(C(=O)OC)C1c1ccco1` (configuration not stated) as the molecule, how does the “activity change, negative = growth inhibition” value read?
Answer: inactive: 54.6%

Question: Which Potency does the source give for `CCOc1ccccc1NC(=O)C1CCN(S(=O)(=O)c2ccc3[nH]c4c(c3c2)CCCCC4)CC1` here?
Answer: inconclusive: 29.1 µM [inhibitor, single point]

Question: Which Potency does the source give for `CCN(CC)S(=O)(=O)c1ccc(NC2CCN(Cc3ccccc3)CC2)nc1` here?
Answer: inconclusive: 16.4 µM [inhibitor, partial curve, poor fit]

Question: For `COc1cc2c(cc1OC)C(c1cc(Br)c(OC)c(OC)c1)CC(=O)N2` (configuration not stated), which Potency is on record?
Answer: inconclusive: 16.4 µM [inhibitor, partial curve]

Question: For `O=C1C2=C(Nc3ccccc3SC2c2ccccc2C(F)(F)F)c2ccccc21` (configuration not stated), which Potency is on record?
Answer: active: 5.8 µM

Question: Which “activity change, negative = growth inhibition” value does the source give for `COc1ccccc1-n1cnnc1SCC(=O)N1CCOCC1` here?
Answer: inactive: -22.3%

Question: With `O=C(NCc1cccs1)c1ccc(CSc2nc3cccnc3n2Cc2ccccc2)cc1` as the molecule, how does the Potency read?
Answer: inconclusive: 25.9 µM [inhibitor, single point]

Question: For `Cc1ccc(C)c(NC(=O)Cn2c(=O)ccc3cc(S(=O)(=O)N4CCCC4)ccc32)c1`, which Potency is on record?
Answer: inconclusive: 29.1 µM [inhibitor, single point]

Question: For `COc1ccc(C(N)=O)cc1NC(=O)CC(O)(C(F)(F)F)C(F)(F)F`, which Potency is on record?
Answer: active: 14.6 µM

Question: For `COc1ccc(/C=N/OCC(=O)N2CC3(C)CC2CC(C)(C)C3)cc1OC` (configuration not stated), which Potency is on record?
Answer: inconclusive: 20.6 µM [inhibitor, single point]

Question: For `O=C(CCn1c(=O)c2cccn2c2ccccc21)Nc1ccc(F)cc1`, which Potency is on record?
Answer: inconclusive: 18.4 µM [inhibitor, single point] and inconclusive: 29.1 µM [inhibitor, single point]

Question: With `CCCCCNC(=O)c1ccc2c(c1)nc(C)n2-c1cccc(C)c1` as the molecule, how does the Potency read?
Answer: active: 14.6 µM

Question: Which Potency does the source give for `NC(=O)c1ccc(NC(=O)COc2coc(CN3CCc4ccccc4C3)cc2=O)cc1` here?
Answer: inconclusive: 18.4 µM [inhibitor, single point]

Question: For `COc1cc(S(=O)(=O)Nc2cccc(C)c2)ccc1NC(=O)c1cccnc1`, which Potency is on record?
Answer: inconclusive: 29.1 µM [inhibitor, single point]

Question: With `COc1ccc(NC(=O)c2sc3nc4c(cc3c2N)CCCCCC4)cc1OC` as the molecule, how does the Potency read?
Answer: inconclusive: 18.4 µM [inhibitor, single point]

Question: With `COc1ccccc1CNCc1ccc(C)cc1` as the molecule, how does the Potency read?
Answer: inconclusive: 16.4 µM [inhibitor, single point]

Question: With `CCCCCN=c1ccn(Cc2ccccc2)c2ccccc12` as the molecule, how does the Potency read?
Answer: active: 2.66 µM

Question: For `Cc1nc(-c2ccc(C)c(S(=O)(=O)N3CCC(C(=O)Nc4ccc(Cl)cc4)CC3)c2)no1`, which Potency is on record?
Answer: active: 16.4 µM

Question: Which Potency does the source give for `CCCOc1ccc(F)cc1-c1cc(C(=O)NCc2ccc(C(F)(F)F)cc2)[nH]n1` here?
Answer: inconclusive: 25.9 µM [inhibitor, single point]

Question: For `CCC1CCCCN1CCCNC(=O)c1cc2c(=O)n(CC)c3ccccc3c2s1` (configuration not stated), which Potency is on record?
Answer: inconclusive: 29.1 µM [inhibitor, single point]

Question: With `O=C1C(SC(F)(F)C(F)F)=C(C(F)(F)F)OC2C3C=CC(C3)C12` (configuration not stated) as the molecule, how does the “activity change, negative = growth inhibition” value read?
Answer: inactive: -12.2%

Question: With `O=C(NCCN1CCOCC1)c1ccc2c(c1)N(Cc1ccc(Cl)cc1)CCS2` as the molecule, how does the Potency read?
Answer: inconclusive: 29.1 µM [inhibitor, single point]

Question: For `COc1ccc(NC(=O)C2(C)Cc3c(-c4ccc(NC(C)=O)cc4)ccnc3O2)cc1OC` (configuration not stated), which Potency is on record?
Answer: inconclusive: 29.1 µM [inhibitor, single point]

Question: For `COc1ccc(S(=O)(=O)NCC(c2ccco2)N2CCc3ccccc32)cc1` (configuration not stated), which Potency is on record?
Answer: inconclusive: 23.1 µM [inhibitor, single point]

Question: For `ClC(Cl)(Cl)c1nc(N/N=C/c2ccncc2)c2ccccc2n1`, which “activity change, negative = growth inhibition” value is on record?
Answer: inactive: -17.7%

Question: Which Potency does the source give for `CN1CCN(CCCOc2ccc(-c3ccccc3)cc2)CC1` here?
Answer: inconclusive: 23.1 µM [inhibitor, single point]

Question: With `CCOC(=O)CSc1nc2ccccc2c(=O)n1CCN1CCOCC1` as the molecule, how does the “activity change, negative = growth inhibition” value read?
Answer: inactive: -15.9%

Question: With `CC(=O)n1cc([C@@H]2C=C(C(=O)N3CCN(C)CC3)O[C@H](OCc3ccc(CO)cc3)C2)c2ccccc21` as the molecule, how does the Potency read?
Answer: inconclusive: 29.1 µM [inhibitor, partial curve, poor fit]

Question: For `C/C(=N\NC(=O)C(=O)Nc1cc(Cl)ccc1Cl)c1ccncc1`, which “activity change, negative = growth inhibition” value is on record?
Answer: inactive: 6.89%

Question: Which Potency does the source give for `CC(=O)c1cccc(NC(=O)C2Cc3c(-c4ccc5c(c4)OCO5)ccnc3O2)c1` (configuration not stated) here?
Answer: active: 13 µM

Question: Which Potency does the source give for `Cc1nnsc1C(=O)Nc1ccc(S(=O)(=O)N2CCCCC2)cc1` here?
Answer: active: 20.6 µM

Question: For `CC(C)c1nc2c(c(=O)c3ccccc3n2C)c(=O)n1CCc1ccccc1`, which Potency is on record?
Answer: inconclusive: 7.31 µM [inhibitor, partial curve]

Question: For `O=C(Nc1cccc(NC(=O)c2ccccc2Cl)c1)c1ccco1`, which “activity change, negative = growth inhibition” value is on record?
Answer: inactive: -27%

Question: With `CC(=O)N1N=C(c2ccc(Cl)cc2)CC1c1ccc([N+](=O)[O-])cc1` (configuration not stated) as the molecule, how does the Potency read?
Answer: inconclusive: 4.61 µM [inhibitor, single point]

Question: With `COc1cccc(NC(=O)N2CCN(c3nc(-c4cccc(OC)c4)cs3)CC2)c1` as the molecule, how does the Potency read?
Answer: active: 5.17 µM

Question: For `O=C(NCc1ccccc1Cl)c1csc([C@H]2C[C@H](O)[C@@H](CO)O2)n1`, which “activity change, negative = growth inhibition” value is on record?
Answer: inactive: 4.71%

Question: Which Potency does the source give for `COc1ccc(-n2nc3c(N4CCC(C(=O)N5CCCCCC5)CC4)nnc(C)c3c2C)cc1` here?
Answer: inconclusive: 29.1 µM [inhibitor, single point]
